{
  "source": "PubChem BioAssay AID1030",
  "about": "(National Center for Advancing Translational Sciences (NCATS), 2008)",
  "note": "Out of some 220,000 compounds screened, about 16,000 (7.3%) were called active. The shares of active, inactive and inconclusive entries below differ from those in the screen. Calls follow the shape of the dose curve; as a rule, active = well fitted inhibition curve with a large enough effect (not every such curve was filed as active); inconclusive = small, poorly fitted or top-dose-only effect, or another doubt; inactive = no such curve, though single readings can be large or run the other way. No potency is given beside an inconclusive call; the fits are too rough. Potency is read from the fitted curve at half-maximal effect; tags tell the direction and shape of the fitted curve.",
  "data": [
    {"biological_target": "Aldehyde dehydrogenase 1A1 (Homo sapiens) (UniProt P00352)", "sequence (P00352 whole entry, looked up)": "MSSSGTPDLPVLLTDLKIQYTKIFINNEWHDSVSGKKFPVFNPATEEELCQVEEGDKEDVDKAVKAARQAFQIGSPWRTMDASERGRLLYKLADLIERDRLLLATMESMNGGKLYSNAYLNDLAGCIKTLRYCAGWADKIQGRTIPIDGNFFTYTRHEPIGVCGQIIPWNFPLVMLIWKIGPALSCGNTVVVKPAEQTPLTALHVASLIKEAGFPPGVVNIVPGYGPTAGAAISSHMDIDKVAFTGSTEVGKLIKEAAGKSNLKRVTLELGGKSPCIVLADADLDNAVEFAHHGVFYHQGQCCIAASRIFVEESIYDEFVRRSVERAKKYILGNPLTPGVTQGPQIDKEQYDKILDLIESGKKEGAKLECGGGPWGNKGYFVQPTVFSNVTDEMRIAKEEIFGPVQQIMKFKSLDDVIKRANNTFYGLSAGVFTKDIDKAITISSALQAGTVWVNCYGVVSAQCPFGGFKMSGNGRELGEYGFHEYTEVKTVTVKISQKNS", "assay": "qHTS Assay for Inhibitors of Aldehyde Dehydrogenase 1 (ALDH1A1);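 as to activity, negative = inhibition: plate controls were no enzyme wells and a reference inhibitor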", "settings": "Purified ALDH1A1, NADH fluorescence, propionaldehyde substrate; series mostly up to 75.3 µM; activity, negative = inhibition: at the top concentration", "values": [
      {"smiles": "CN(C)C(=O)/C(=C/c1cn(-c2ccccc2)nc1-c1cccc([N+](=O)[O-])c1)NC(=O)c1ccccc1", "Potency": "inconclusive [inhibitor, partial curve]"},
      {"smiles": "O=[N+]([O-])c1cc(/C=N/n2c(-c3ccncc3)n[nH]c2=S)ccc1Cl", "Potency": "inconclusive [inhibitor, full curve]"},
      {"smiles": "Cc1cc(NC(=O)c2ccc3c(c2)C(=O)N(C2CCCCC2)C3=O)no1", "activity, negative = inhibition": "inactive: -0.198%"},
      {"smiles": "Cc1ccccc1OCC(=O)NC(=S)Nc1ccc(S(=O)(=O)NC2CCCCC2)cc1", "Potency": "inconclusive [inhibitor, partial curve]"},
      {"smiles": "Cc1csc(NC(=O)CN(C)S(=O)(=O)c2cccc3cccnc23)n1", "Potency": "inconclusive [inhibitor, single point]"},
      {"smiles": "CC(C)CN1CC[C@@]2(CCCN(C(=O)c3ccco3)C2)C1", "Potency": "active: 0.447 µM"},
      {"smiles": "O=C(CSc1ccc(-c2cccs2)nn1)NCCc1ccccc1", "activity, negative = inhibition": "inactive: -8.52%"},
      {"smiles": "CCN(c1ccccc1)S(=O)(=O)c1cc(C(=O)Nc2ccc(Br)cc2)ccc1F", "Potency": "active: 28.2 µM"},
      {"smiles": "O=C(c1cc2c(s1)CCC2)N1CCN(c2ccccc2)CC1", "Potency": "inconclusive [inhibitor, partial curve]"},
      {"smiles": "Cc1ccccc1C(=O)Nc1nnc(-c2ccco2)o1", "activity, negative = inhibition": "inactive: -4.16%"},
      {"smiles": "O=C(NNc1ccccc1[N+](=O)[O-])Nc1ccc(Cl)c(Cl)c1", "Potency": "inconclusive [inhibitor, single point]"},
      {"smiles": "CC1=CCc2c(cc3oc(C)cc(=O)c3c2O)OC1", "Potency": "inconclusive [inhibitor, single point]"},
      {"smiles": "CC(C)(C)C(=O)Cn1ncc(Br)c(Br)c1=O", "Potency": "active: 7.94 µM"},
      {"smiles": "CCCc1cc(=O)[nH]c(SCC(=O)NC)n1", "activity, negative = inhibition": "inactive: 2.83%"},
      {"smiles": "c1cnc2nc(CSc3ncn[nH]3)cn2c1", "Potency": "inconclusive [inhibitor, partial curve]"},
      {"smiles": "CCCCCCCC[N+](CCCCCCCC)(CCCCCCCC)CCCCCCCC", "Potency": "inconclusive [inhibitor, single point]"},
      {"smiles": "Cc1ccc(-n2nnnc2SCC(=O)Nc2sccc2C#N)cc1", "activity, negative = inhibition": "inactive: 0.791%"},
      {"smiles": "COCCC(=O)N1CCCC(CCC(=O)NCc2ccc(F)c(F)c2)C1", "note": "(stereo unspecified)", "activity, negative = inhibition": "inactive: 1.82%"},
      {"smiles": "Cc1cc(C(=O)CSc2nnnn2-c2ccccc2)c(C)n1CC1CCCO1", "note": "(stereo unspecified)", "Potency": "inconclusive [inhibitor, full curve]"},
      {"smiles": "OC(COc1ccc2c(c1)CCC2)CN1CCN(c2ccccc2F)CC1", "note": "(stereo unspecified)", "Potency": "inconclusive [inhibitor, single point]"},
      {"smiles": "COc1ccc(NS(=O)(=O)c2ccc(O)c(NC(=O)c3cc4c(C)nn(-c5ccc(F)cc5)c4s3)c2)cc1", "Potency": "inconclusive [inhibitor, single point]"}
    ]}
  ]
}
